Data taken from publication PMC9684302.
Results are given in words; binding and its absence hold for the method and conditions named. In cells and extracts the contact can be indirect. Some results given as binding are weak or reduced against the parent protein; the word gives no strength. For part of these data: Where a sequence is shown, tags or fusion partners need not be part of it. One block for each molecule: values may come before it.

By UniProt entry, the sequences of proteins in these tests, tags left out. Where a name states a change or a piece, a line headed by the entry shows the natural chain unless it says otherwise.
UniProt Q16637: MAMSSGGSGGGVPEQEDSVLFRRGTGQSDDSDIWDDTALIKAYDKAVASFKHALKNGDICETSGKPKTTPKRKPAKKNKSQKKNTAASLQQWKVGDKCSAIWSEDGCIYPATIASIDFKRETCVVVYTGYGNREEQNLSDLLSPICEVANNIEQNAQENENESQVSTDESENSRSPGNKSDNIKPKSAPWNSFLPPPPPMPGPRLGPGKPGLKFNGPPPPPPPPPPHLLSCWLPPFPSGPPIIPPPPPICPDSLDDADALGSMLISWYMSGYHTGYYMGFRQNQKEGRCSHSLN
UniProt P51114: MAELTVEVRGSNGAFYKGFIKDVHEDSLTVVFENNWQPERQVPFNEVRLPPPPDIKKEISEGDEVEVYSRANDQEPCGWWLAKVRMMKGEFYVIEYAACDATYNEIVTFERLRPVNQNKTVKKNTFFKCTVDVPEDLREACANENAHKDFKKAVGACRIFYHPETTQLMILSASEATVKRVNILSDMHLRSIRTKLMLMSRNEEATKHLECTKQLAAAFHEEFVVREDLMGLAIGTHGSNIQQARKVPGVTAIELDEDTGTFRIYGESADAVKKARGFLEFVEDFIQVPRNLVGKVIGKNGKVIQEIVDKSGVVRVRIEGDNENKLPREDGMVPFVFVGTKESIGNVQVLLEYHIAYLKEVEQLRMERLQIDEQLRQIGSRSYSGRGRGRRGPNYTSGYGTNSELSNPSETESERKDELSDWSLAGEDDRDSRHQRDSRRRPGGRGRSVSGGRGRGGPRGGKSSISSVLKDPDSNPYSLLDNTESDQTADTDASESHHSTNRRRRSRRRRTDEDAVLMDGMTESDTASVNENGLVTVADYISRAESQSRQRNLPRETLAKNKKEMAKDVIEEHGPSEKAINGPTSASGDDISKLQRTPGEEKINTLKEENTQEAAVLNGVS
UniProt P51116: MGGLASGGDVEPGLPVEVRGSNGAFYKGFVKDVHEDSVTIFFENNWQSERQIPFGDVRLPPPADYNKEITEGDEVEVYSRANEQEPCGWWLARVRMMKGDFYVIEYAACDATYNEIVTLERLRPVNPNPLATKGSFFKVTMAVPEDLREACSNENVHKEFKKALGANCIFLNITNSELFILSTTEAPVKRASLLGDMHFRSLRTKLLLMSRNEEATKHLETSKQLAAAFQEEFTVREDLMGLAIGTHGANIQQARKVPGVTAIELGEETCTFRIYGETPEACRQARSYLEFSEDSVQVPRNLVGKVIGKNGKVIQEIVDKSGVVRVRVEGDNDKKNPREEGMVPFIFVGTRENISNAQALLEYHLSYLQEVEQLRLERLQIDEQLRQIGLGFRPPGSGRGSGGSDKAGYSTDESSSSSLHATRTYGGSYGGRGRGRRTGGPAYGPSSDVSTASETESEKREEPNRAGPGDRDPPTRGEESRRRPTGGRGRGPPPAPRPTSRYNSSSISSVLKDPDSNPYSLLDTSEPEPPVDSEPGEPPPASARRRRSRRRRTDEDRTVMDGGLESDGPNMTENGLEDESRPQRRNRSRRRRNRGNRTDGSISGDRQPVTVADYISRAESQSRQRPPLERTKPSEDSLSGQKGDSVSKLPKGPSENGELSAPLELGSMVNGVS
UniProt Q9BRJ7: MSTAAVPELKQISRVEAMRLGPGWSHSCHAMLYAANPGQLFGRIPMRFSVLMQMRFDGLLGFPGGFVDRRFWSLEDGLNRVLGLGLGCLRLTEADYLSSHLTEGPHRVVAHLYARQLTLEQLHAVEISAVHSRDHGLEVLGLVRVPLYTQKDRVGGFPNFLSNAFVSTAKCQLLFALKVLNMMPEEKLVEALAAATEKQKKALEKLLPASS

What was measured:
[1] = target: GST-SMN (full-length WT, SMNWT) (human) (UniProt Q16637); assay: pull-down; purified recombinant GST-SMN forms incubated with cell extracts containing FLAG-FMRP or FLAG-FXR1, glutathione-Sepharose beads, blot with α-FLAG or α-GST; only the target purified
[2] = target: MYC-BirA-SMN Y130C (human) (UniProt Q16637); assay: co-IP; FLAG-tagged candidates co-expressed with MYC-BirA or MYC-BirA-SMN forms in HEK293T; IP with α-MYC, blot with α-FLAG; 50 mM Tris-Cl pH 7.5, 200 mM NaCl, 0.1% Triton X, 10% glycerol
[3] = target: MYC-BirA-SMN_(E134K) (human) (UniProt Q16637); assay: as above
[4] = target: MYC-BirA-SMN_(AC/DC) (aromatic cage dead, W102A/Y109A/Y127A/Y130A quadruple mutant) (human) (UniProt Q16637); assay: as above
MYC-BirA-SMN (human) = MYC-BirA-SMN (human) (UniProt Q16637); assay: as above
FLAG-FXR1 = FLAG-FXR1 (UniProt P51114); assay: co-IP; FLAG-tagged candidates expressed on their own in HEK293T; IP with α-FLAG, blot with α-SMN for endogenous SMN; also after siRNA silencing of PRMT1-8 (silencing of PRMT1 enhanced the co-IP with FLAG-FMRP)

Molecule: FLAG-FXR1 (from UniProt P51114 1-621)
binding [1]: binds | binding [2]: no binding | binding [3]: binds | binding [4]: no binding | binding (MYC-BirA-SMN (human)): binds

Molecule: endogenous SMN (from UniProt Q16637 1-294)
binding (FLAG-FXR1): binds

Further lines, results first:

binding (MYC-BirA-SMN (human)): binds
Molecule: FLAG-FXR2 (from UniProt P51116 1-673)

binding (MYC-BirA-SMN (human)): no binding
Molecule: FLAG-TIRR (from UniProt Q9BRJ7 1-211)

binding (MYC-BirA-SMN (human)): no binding
B1: FLAG-CSRP2 (protein, UniProt Q16527 1-193)
chain: MPVWGGGNKCGACGRTVYHAEEVQCDGRSFHRCCFLCMVCRKNLDSTTVAIHDEEIYCKSCYGKKYGPKGYGYGQGAGTLNMDRGERLGIKPESVQPHRPTTNPNTSKFAQKYGGAEKCSRCGDSVYAAEKIIGAGKPWHKNCFRCAKCGKSLESTTLTEKEGEIYCKGCYAKNFGPKGFGYGQGAGALVHAQ
